Results as given in PubChem BioAssay AID488969 (Vanderbilt High Throughput Screening Facility, 2010).
In all, about 110,000 compounds were measured (“z-score”: median about -0.1, highest 2% from about 2 on). This is one part of the list. Active and inactive are the calls of the source.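 How the source made its calls: active means z-score in the third read window above 3 or below -3; inactive means the rest.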

The molecules below were run against Metabotropic glutamate receptor 8 (Rattus norvegicus) (UniProt P70579) (assay: mGluR8 Gi/Go-coupled signaling modulation – cell-based, rat, thallium flux, HTS, primary screen (AID 488969)). Conditions: HEK293 rat mGluR8, GIRK (G protein-gated inwardly rectifying potassium channel) thallium flux, FluoZin2; at 10 µM; stronger effect = higher value; submaximal glutamate (EC20) added with thallium.
UniProt P70579, sequence (P70579 whole entry, looked up): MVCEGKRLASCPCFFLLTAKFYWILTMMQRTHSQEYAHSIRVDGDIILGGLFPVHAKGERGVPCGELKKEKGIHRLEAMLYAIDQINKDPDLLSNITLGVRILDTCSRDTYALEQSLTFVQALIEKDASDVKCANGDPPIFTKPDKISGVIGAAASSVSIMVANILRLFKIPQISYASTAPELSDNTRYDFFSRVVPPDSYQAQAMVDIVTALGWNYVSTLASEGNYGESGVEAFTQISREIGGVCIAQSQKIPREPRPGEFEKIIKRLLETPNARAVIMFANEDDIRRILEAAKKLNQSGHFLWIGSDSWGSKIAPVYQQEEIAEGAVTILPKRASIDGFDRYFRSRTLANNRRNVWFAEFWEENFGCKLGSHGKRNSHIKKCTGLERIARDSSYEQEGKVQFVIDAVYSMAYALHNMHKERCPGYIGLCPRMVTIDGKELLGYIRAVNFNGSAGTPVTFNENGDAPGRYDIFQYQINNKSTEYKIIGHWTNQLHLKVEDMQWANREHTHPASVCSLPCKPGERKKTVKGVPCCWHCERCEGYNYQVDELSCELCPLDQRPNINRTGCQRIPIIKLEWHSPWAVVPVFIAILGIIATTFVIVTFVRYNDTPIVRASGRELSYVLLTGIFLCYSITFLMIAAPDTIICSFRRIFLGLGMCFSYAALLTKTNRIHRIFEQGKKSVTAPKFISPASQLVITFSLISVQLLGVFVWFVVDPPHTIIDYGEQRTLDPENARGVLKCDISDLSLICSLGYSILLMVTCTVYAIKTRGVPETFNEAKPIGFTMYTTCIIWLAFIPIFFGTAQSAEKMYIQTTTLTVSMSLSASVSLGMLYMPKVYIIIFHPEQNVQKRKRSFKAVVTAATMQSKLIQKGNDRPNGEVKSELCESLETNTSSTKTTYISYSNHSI

Row | Compound | z-score
1 | CCOc1cc(CO)cc(Br)c1OCC(=O)O | -0.3
2 | O=C(/C=C/c1ccc(Cl)cc1Cl)N(Cc1ccccc1)C1CCS(=O)(=O)C1 (stereo unspecified) | -0.748
3 | O=c1oc2ccccc2c(Nc2ccccc2)c1[N+](=O)[O-] | 0.27
4 | CC1(C)COC(c2cccc(C3=NC(C)(C)CO3)n2)=N1 | 0.19
5 | Cc1cc(C(=O)CSc2nnc(N)s2)c(C)n1CCc1ccc(Cl)cc1 | 1.21
6 | COc1ccc(C(=O)CN2C(=O)NC(C)(c3ccccc3)C2=O)cc1OC (stereo unspecified) | -0.173
7 | CC12CC(NC(=O)N1c1cccc(C(=O)NCc3ccccc3)c1)c1ccccc1O2 (stereo unspecified) | -0.344
8 | COCCNC(=O)c1cc2c(=O)n(C)c3ccccc3c2n1C | -0.524
9 | Cc1ccc(-c2cc(C(=O)OCC(=O)Nc3ncc(C(F)(F)F)cc3Cl)c3ccccc3n2)cc1 | -0.308
10 | CC(Sc1nc2ccccc2s1)C(=O)NC1CCCc2ccccc21 (stereo unspecified) | -0.216
11 | O=C(C(Cc1ccccc1)n1cccc1)N1CCCCCC1 (stereo unspecified) | 0.284
12 | CCOCCCn1c(C)nc2c(c1=O)c1nc3ccccc3nc1n2CCC1=CCCCC1 | -0.551
13 | CC(C)CNC(=O)COC(=O)CCC(=O)c1ccc(F)cc1 | -0.0187
14 | COCCSc1nc2sc3c(c2c(=O)n1-c1ccccc1)CCN(C)C3 | 1.74
15 | COc1ccc(-c2cc(C(=O)Nc3c(C)nn(Cc4ccccc4Cl)c3C)no2)cc1 | -0.115
16 | CCn1c(C)cc(/C=C2\NC(=O)N(Cc3ccccc3)C2=O)c1C | -0.148
17 | COC(=O)c1ccc(OC(=O)CCN2C(=O)C3CCCCC3C2=O)cc1 (stereo unspecified) | -0.48
18 | Cc1cc(NC(=O)CCSc2nc(-c3ccco3)cc(C(F)(F)F)n2)no1 | -0.181
19 | COc1cc(/C=C2\SC(c3ccc(C)cc3)=NC2=O)cc(OC)c1O | -0.229
20 | Cc1ccccc1CN1CCN(CC(=O)NCCCN2CCN(c3ccc(F)cc3)CC2)C1=O | -0.818
21 | Cc1c(/C=C2\SC(=O)N(CC(=O)Nc3ccc4c(c3)OCO4)C2=O)c2ccccc2n1C | 0.0495
22 | CCOC(=O)c1cc2c(ccn2C)n1CC(=O)N1CCCC(C)C1 (stereo unspecified) | -0.438
23 | Cc1cc(Cl)c(OCCCCNC(C)(C)C)c(Br)c1 | -0.101

Row | Compound | z-score
24 | CCn1c(=O)n(CC(=O)N2CCN(c3ccccc3F)CC2)c(=O)c2ccccc21 | -0.454
25 | CN(C)c1ccc(-c2nc3n(n2)C(c2cccnc2)C2=C(CC(C)(C)CC2=O)N3)cc1 (stereo unspecified) | 0.11
26 | COC(=O)Nc1nc(-c2ccccc2)c(C(=O)c2ccccc2)s1 | -0.123
27 | CCCS(=O)(=O)N1CCN(Cc2ccc3c(c2)c2ccccc2n3CC)CC1 | 0.291
28 | CCn1c(SCC(=O)c2ccc(Cl)cc2)nnc1-c1cccs1 | -0.547
29 | Cc1nc(NC(=O)COC(=O)C(NC(=O)c2ccco2)C(C)C)c(Cl)cc1Cl (stereo unspecified) | -0.829
30 | O=C(N/N=C/c1ccc(O)cc1)c1csc2c1CCCC2 | -0.827
31 | O=C(CCCCCNS(=O)(=O)c1ccc(Br)cc1)NCCN1CCOCC1 | 0.263
32 | Cc1ccc(C(C(=O)NC2CCCC2)N(Cc2ccco2)C(=O)CCC(=O)Nc2ccccn2)cc1 (stereo unspecified) | -0.557
33 | Cc1ccc(-n2nnc3c(=O)n(Cc4ccccc4C)cnc32)cc1 | 0.631
34 | O=C(CN(c1ccc(Cl)cc1)S(=O)(=O)c1ccc(Cl)c([N+](=O)[O-])c1)NCCc1ccc(F)cc1 | -0.126
35 | Cc1cccc2c1OCC/C2=N\NC(=O)COc1ccccc1 | 0.472
36 | CN(Cc1cc2ccccc2[nH]c1=O)C(=O)C1CCCCC1 | -0.113
37 | CC1=C(C(N)=O)C(c2cccnc2)n2nc(-c3cccc(Cl)c3)nc2N1 (stereo unspecified) | 0.192
38 | O=C(NCc1cccnc1)C1c2ccccc2C(=O)N1Cc1ccco1 (stereo unspecified) | -0.12
39 | CN(C)C(/C=C/Nc1ccccc1F)=C(C#N)C#N | 0.0306
40 | O=C(NN=C1CCCCCCC1)C(=O)NC1CCCCC1 | 0.327
41 | CCOc1ccc(N/C(SC)=C(/C#N)C(N)=O)cc1 | -0.125
42 | CCCC(=O)NC(NC(=S)Nc1ccc(N=Nc2ccccc2)cc1)C(Cl)(Cl)Cl (stereo unspecified) | 1.78
43 | CC(=O)Nc1ccc(OCC=C(Cl)Cl)cc1 | 7.27e-06
44 | C(=N\N1CCN(C2c3ccccc3-c3ccccc32)CC1)/c1cccnc1 | -0.385
45 | CS(=O)(=O)N1CCN(C(=O)C2c3ccccc3Oc3ccccc32)CC1 | -0.193
46 | CCOc1ccccc1N(CC(=O)N1CCOCC1)S(=O)(=O)c1ccccc1 | 0.28

Row | Compound | z-score
47 | C/C(Nc1ccc(Cl)cc1)=C(/C#N)C(N)=O | 0.0897
48 | Cc1cc(C)cc(Cn2ncc(Cl)c(Cl)c2=O)c1 | -0.081
49 | O=c1c2ccccc2nnn1CSc1nnc2sc3ccccc3n12 | -0.991
50 | COc1ccccc1OCCSc1nnc(C)n1-c1ccccc1 | -0.339
51 | CCOC(=O)CSCC(NC(=O)OC(C)(C)C)C(=O)OCC (stereo unspecified) | -0.352
52 | Cc1cc(C)n2nc(-c3sccc3-n3cccc3)cc2n1 | -0.232
53 | N#Cc1cccc(C(c2nnnn2CCc2ccccc2)N2CCN(C3CCCCC3)CC2)c1 (stereo unspecified) | -0.0112
54 | COc1ccc(-c2nc3ccc([N+](=O)[O-])cc3[nH]2)cc1 | -0.634
55 | Cc1ccnc(N2C(=O)C3C4CC(C(Br)C4Br)C3C2=O)c1 (stereo unspecified) | 0.0912
56 | COC(=O)c1ccc(NC(=O)CSc2nnc(COc3ccccc3)n2C)cc1 | active: 11.8
57 | COCCNC(=O)C(c1ccc(F)cc1)N(CCOC)C(=O)CCC(=O)Nc1nccs1 (stereo unspecified) | -0.387
58 | Nc1nc(NC(=O)C(Cl)(Cl)Cl)nn1-c1ccccc1 | -0.448
59 | COc1ccc(NC(=O)Nc2ccc3c(c2)N(C)C(=O)CS3)cc1Cl | -0.0405
60 | COCCSc1ccccc1C(=O)N1CCCC1 | 1.26
61 | Cc1cc(C(=O)NCc2cccnc2)cs1 | 0.217
62 | CCN(c1ccc(NC(=O)COC(=O)c2cccs2)cc1)C(C)C | -0.152
63 | Nc1nc2n(n1)C(c1ccco1)CC(c1ccccc1)N2 (stereo unspecified) | -0.0773
64 | Cn1ncc2c1ncn1nc(COc3ccc4ccccc4c3)nc21 | -0.0477
65 | Cc1sc2ncnc(OCC(=O)NC(C)C)c2c1C | -0.178
66 | CSc1nc2ccc(S(=O)(=O)N3CCCCC3)cc2s1 | -0.209
67 | COc1ccc(S(=O)(=O)Nc2cccc(S(=O)(=O)N3CCCCCC3)c2)cc1 | -0.405
68 | CC(=O)Nc1cccc(N2CCCC2=O)c1 | 0.353
69 | Cc1ccc(-n2nc(C)c(C3(O)C(=O)N(C)c4ccccc43)c2N)cc1 (stereo unspecified) | -0.211

Row | Compound | z-score
70 | Clc1ccc(-c2nnc3sc(-c4ccc(Br)o4)nn23)cc1 | -0.394
71 | O=C(NC1CS(=O)(=O)CC1NCc1ccco1)c1ccccc1 (stereo unspecified) | 0.308
72 | O=c1c2ccccc2nc(CSc2nnnn2-c2ccccc2)n1-c1ccccc1Cl | -1.22
73 | CC(=O)NS(=O)(=O)c1ccc(N=c2ssc3c2-c2cc(C)ccc2NC3(C)C)cc1 | -0.278
74 | O=C(/C=C/c1cccs1)c1ccc(NC(=O)c2cccc(Br)c2)cc1 | 0.0521
75 | Nc1nnc(CSCc2ccccc2)s1 | -0.29
76 | Cc1ccc(C(=O)O/N=C2\CCSc3ccc(C)cc32)cc1 | 0.0502
77 | COc1ccccc1N1CCN(C(=O)c2sc3nc(-c4ccccc4)cn3c2C)CC1 | -0.533
78 | O=C(c1cnc2n(c1=O)CCS2)N1CCN(c2ccc([N+](=O)[O-])cc2)CC1 | 0.292
79 | O=C(O)c1cc(NS(=O)(=O)c2cccc3ccccc23)ccc1O | -0.171
80 | CCCOc1cc(N(CC)CC)ccc1/C=C(/C#N)c1nc2ccc(C)cc2[nH]1 | -0.494
81 | COC(=O)C1=C(Nc2ccc(OC)cc2)C=C(C)C(C(=O)OC)C1c1ccc(C)cc1 (stereo unspecified) | 0.568
82 | CC1CC(C)CN(CC(O)COCCOc2ccc(Br)cc2)C1 (stereo unspecified) | 0.701
83 | CCN(CC)CCNC(=O)Cn1nc(Cc2ccccc2)c2ccccc2c1=O | 0.25
84 | C=C(C)CSc1nc2nc(C)c(Br)cc2[nH]1 | -0.373
85 | CCCCNC1=C(Br)C(=O)CC(C)(C)C1 | -0.0723
86 | Cc1ccccc1C(=O)NNC(=O)c1ccoc1C | 0.108
87 | O=C1NC2(C=Cc3c(ccc4ccccc34)O2)Oc2ccccc21 (stereo unspecified) | -0.237
88 | COc1cc2ccccc2cc1C(=O)N1CCN(C)CC1 | 0.651
89 | Cc1cc(Cl)ccc1NC(=S)Nc1ccccn1 | -0.568
90 | CCC(=O)Nc1ccc(S(=O)(=O)N2CCOCC2)cc1 | -0.624
91 | O=C(N/N=C/C=C/c1ccccc1)c1n[nH]c2c1CCC2 | -0.493
92 | Cc1cc(C(=O)N/N=C/c2cc([N+](=O)[O-])cc(C)c2O)n[nH]1 | -0.163

Row | Compound | z-score
93 | C=CCOc1c2ccc(C(=O)NCCc3ccc(C)cc3)cc2nn1C | 0.0834
94 | CCCCn1ccc(O)c(Cc2ccc(F)cc2)c1=O | 0.0131
95 | CC(C)CCNc1nc2c(cc1C#N)COC(C)(C)C2 | -0.377
96 | CN(CC(=O)Nc1ccncc1)S(=O)(=O)c1ccccc1 | -0.263
97 | CCOC(=O)c1[nH]c2ccc(Cl)cc2c1NC(=O)/C=C/c1ccc2c(c1)OCO2 | 0.296
98 | CC(=O)C1=C(O)C(=O)N(c2ccc(C)cc2)C1c1ccccn1 (stereo unspecified) | -0.234
99 | O=c1c2ccccc2nc(SCc2cc(=O)n3ccsc3n2)n1CCCO | -0.128
100 | Cc1noc2c1C(c1ccc(N(C)C)cc1)C1=C(CC(C)(C)CC1=O)N2 (stereo unspecified) | -0.142
101 | Cc1[nH]c2c(C)cccc2c1CCNC(=O)c1ccc2c(c1[N+](=O)[O-])C(=O)c1ccccc1C2=O | -0.202
102 | O=C(c1ccc(Cl)c(F)c1F)N1CCCC1 | 0.212
103 | COc1cccc(-c2cc3nc(-c4ccccc4)cc(N4CCC5(CC4)OCCO5)n3n2)c1 | -0.278
104 | Cc1ccccc1C(=O)NCc1nnc(SCC(=O)N2CCN(c3ccccc3)CC2)n1C | -0.0488
105 | CCOc1cc(C(=S)N2CCOCC2)ccc1OC | 0.167
106 | CN(CCNC(=O)C1CCN(S(=O)(=O)N2CCOCC2)CC1)CCc1ccccc1 | -1.44
107 | CCN(CC)S(=O)(=O)c1cccc(C(=O)OCC(=O)Nc2ccccc2OC(F)F)c1 | -0.984
108 | CC(C)(C)n1nnnc1C(c1cccs1)N1CCCC2(CCCCC2)C1 (stereo unspecified) | 0.125
109 | CCOc1cc(/C=N/NC(=O)c2ccncc2)cc(Cl)c1OS(C)(=O)=O | -0.74
110 | O=C1CCCCN1CCc1c[nH]c2ccccc12 | 0.0189
111 | CON/C=C(\C=Nc1ccc(C(F)(F)F)cc1)c1ncc(C(F)(F)F)cc1Cl | -0.109
